Experimental data reported in patent US20250051410A1 (KAHR MEDICAL, published 2025).

B1: DSP216 WT (Fc fusion)
chain 1: QTGTIPKPTLWAEPDSVITQGSPVTLSCQGSLEAQEYRLYREKKSASWITRIRPELVKNGQFHIPSITWEHTGRYGCQYYSRARWSELSDPLVLVMTGAYPKPTLSAQPSPVVTSGGRVTLQCESQVAFGGFILCKEGEEEHPQCLNSQPHARGSSRAIFSVGPVSPNRRWSHRCYGYDLNSPYVWSSPSDLLELLVPGVSKKPSLSVQPGPVVAPGESLTLQCVSDVGYDRFVLYKEGERDLRQLPGRQPQAGLSQANFTLGPVSRSYGGQYRCYGAHNLSSECSAPSDPLDILITGQIRGTPFISVQPGPTVASGENVTLLCQSWRQFHTFLLTKAGAADAPLRLRSIHEYPKYQAEFPMSPVTSAHAGTYRCYGSLNSDPYLLSHPSEPLELVVSGGGGSGGGGSGGGGS[human IgG1 Fc with changes left out here]
chain 2: [about 350 residues left out here]GGGGSGGGGS[human IgG1 Fc with changes left out here]
B2: DSP216 V3 (Fc fusion)
chain 1: QTGTIPKPTLWAEPDSVITQGSPVTLSCQGSLEAQEYRLYREKKSASWITRIRPELVKNGQFHIPSITWEHTGRYGCQYYSRARWSELSDPLVLVMTGAYPKPTLSAQPSPVVTSGGRVTLQCESQVAFGGFILCKEGEEEHPQCLNSQPHARGSSRAIFSVGPVSPNRRWSHRCYGYDLNSPYVWSSPSDLLELLVPGVSKKPSLSVQPGPVVAPGESLTLQCVSDVGYDRFVLYKEGERDLRQLPGRQPQAGLSQANFTLGPVSRSYGGQYRCYGAHNLSSECSAPSDPLDILITGQIRGTPFISVQPGPTVASGENVTLLCQSWRQFHTFLLTKAGAADAPLRLRSIHEYPKYQAEFPMSPVTSAHAGTYRCYGSLNSDPYLLSHPSEPLELVVSGGGGSGGGGSGGGGS[human IgG1 Fc with changes left out here]
chain 2: EEELQVIQPDKSVLVAAGETATLRCTATSLIPVGPIQWFRGAGPGRELIYNQKEGHFPRVTTVSDLTKRNNMDFSIRIGNITPADAGTYYCVKFRKGSPDDVEFKSGAGTELSVRAKGGGGSGGGGS[human IgG1 Fc with changes left out here]
B3: DSP216 V21 short (Fc fusion)
chain 1: QTGTIPKPTLWAEPDSVITQGSPVTLSCQGSLEAQEYRLYREKKSASWITRIRPELRKNGQFHIPSITWEHTGRYGCQYYSRARWSELSDPLVLVMTGAYPKPTLSAQPSPVVTSGGRVTLQCESQVAFGGFILCKEGEEEHPQCLNSQPHARGSSRAIFSVGPVSPNRRWSHRCYGYDLNSPYVWSSPSDLLELLVPGVSKKPSLSVQPGPVVAPGESLTLQCVSDVGYDRFVLYKEGERDLRQLPGRQPQAGLSQANFTLGPVSRSYGGQYRCYGAHNLSSECSAPSDPLDILITGQIRGTPFISVQPGPTVASGENVTLLCQSWRQFHTFLLTKAGAADAPLRLRSIHEYPKYQAEFPMSPVTSAHAGTYRCYGSLNSDPYLLSHPSEPLELVVSGGGGSGGGGSGGGGS[human IgG1 Fc with changes left out here]
chain 2: EEELQVIQPDKSVLVAAGETATLRCTATSLIPVGPIQWFRGAGPGRELIYNQKEGHFPRVTTVSDLTKRNNMDFSIRIGNITPADAGTYYCVKFRKGSPDDVEFKSGAGTELSVRAKGGGGSGGGGS[human IgG1 Fc with changes left out here]
B4: DSP216 V12 short (Fc fusion)
chain 1: QTGTIPKPTLWAEPDSVITQGSPVTLSCQGSLEAQEYRLYREKKSASWITRIRPELRKNGQFHIPSITWEHTGRYGCQYYSRARWSELSDPLVLVMTGAYPKPTLSAQPSPVVTSGGRVTLQCESQVAFGGFILCKEGEEEHPQCLNSQPHARGSSRAIFSVGPVSPNRRWSHRCYGYDLNSPYVWSSPSDLLELLVPGVSKKPSLSVQPGPVVAPGESLTLQCVSDVGYDRFVLYKEGERDLRQLPGRQPQAGLSQANFTLGPVSRSYGGQYRCYGAHNLSSECSAPSDPLDILITGQIRGTPFISVQPGPTVASGENVTLLCQSWRQFHTFLLTKAGAADAPLRLRSIHEYPKYQAEFPMSPVTSAHAGTYRCYGSLNSDPYLLSHPSEPLELVVSGGGGSGGGGSGGGGSEPKSSDKTHTCPPCPAPEAAGGPSVFLFPPKPKDTLMISRTPEVTCVVVDVSHEDPEVKFNWYVDGVEVHNAKTKPREEQYNSTYRVVSVLTVLHQDWLNGKEYKCKVSNKALPAPIEKTISKAKGQPREPQVCTLPPSRDELTKNQVSLSCAVKGFYPSDIAVEWESNGQPENNYKTTPPVLDSDGSFFLVSKLTVDKSRWQQGNVFSCSVMHEALHNHYTQKSLSLSPGK
chain 2: EEELQVIQPDKSVLVAAGETATLRCTATSLIPVGPIQWFRGAGPGRELIYNQKEGHFPRVTTVSDLTKRNNMDFSIRIGNITPADAGTYYCVKFRKGSPDDVEFKSGAGTELSVRAKGGGGSGGGGS[human IgG1 Fc with changes left out here]
B5: DSP216 V21 (Fc fusion)
chain 1: QTGTIPKPTLWAEPDSVITQGSPVTLSCQGSLEAQEYRLYREKKSASWITRIRPELRKNGQFHIPSITWEHTGRYGCQYYSRARWSELSDPLVLVMTGAYPKPTLSAQPSPVVTSGGRVTLQCESQVAFGGFILCKEGEEEHPQCLNSQPHARGSSRAIFSVGPVSPNRRWSHRCYGYDLNSPYVWSSPSDLLELLVPGVSKKPSLSVQPGPVVAPGESLTLQCVSDVGYDRFVLYKEGERDLRQLPGRQPQAGLSQANFTLGPVSRSYGGQYRCYGAHNLSSECSAPSDPLDILITGQIRGTPFISVQPGPTVASGENVTLLCQSWRQFHTFLLTKAGAADAPLRLRSIHEYPKYQAEFPMSPVTSAHAGTYRCYGSLNSDPYLLSHPSEPLELVVSGGGGSGGGGSGGGGS[human IgG1 Fc with changes left out here]
chain 2: [about 350 residues left out here]GGGGSGGGGS[human IgG1 Fc with changes left out here]
B6: DSP216 V6 (Fc fusion)
chain 1: B4 chain 1 with R57V
chain 2: EEELQVIQPDKSVLVAAGETATLRCTATSLIPVGPIQWFRGAGPGRELIYNQKEGHFPRVTTVSDLTKRNNMDFSIRIGNITPADAGTYYCVKFRKGSPDDVEFKSGAGTELSVRAKGGGGSGGGGS[human IgG1 Fc with changes left out here]

Target: T1, CD47 (human, UniProt Q08722)
T1 construct: whole, on cells; Endogenous CD47 on the cells used; also called hCD47; human CD47
Test: flow cytometry, HT1080 cells (CD47 only) and HT1080-HLA-G cells with anti HLA-G, anti human-IgG1 detection (legend of FIG. 11)
Protocol: Binding was determined following immunostaining of the IgG backbone using anti human-IgG1 antibody, followed by flow cytometry analysis. GMFI values are presented and were used to create binding curve graphs with the GraphPad Prism software.

Row | binding result | Binder
1 | binds | B1
2 | binds | B2
3 | binds | B3
4 | binds | B4
5 | binds | B5
6 | binds | B6

Substitutions are numbered along the chain they refer to.
